The text below walks through data of the supplement of paper PMC4604168 (melanoma cell lines).

Holding throughout (assay): cell count relative to DMSO control; melanoma cells; higher = more viable cells
Holding throughout (conditions): library dose: standard library concentration; 72 h

Assay [1] relates to 501Mel.
For assay [2], the system named is A101D.
Assay [3] concerns A2058.
The test system of assay [4] is A375.

Some of the results follow. Many values rest on one well or one pass, so single values are uncertain.
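Further: cells treated in 1,536-well plates, then fixed and DAPI-stained, with nuclei counted from automated high-throughput microscope images.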

With `C=CCn1c(=O)c2cnc(Nc3ccc(N4CCN(C)CC4)cc3)nc2n1-c1cccc(C(C)(C)O)n1` + COC(=O)c1sccc1S(=O)(=O)Nc1ccc(Nc2ccccc2)cc1OC [GSK0660] (first compound 0.1 µM, partner dose 5 µM), the cell count in assay [1] was 81.5%; in assay [2], 62.6%; in assay [3] it was 111%; in assay [4] it was 75.4%.
For the compound `NC(=O)Nc1cc(-c2cccc(F)c2)sc1C(=O)N[C@H]1CCCNC1` + COc1cc(N2CCC(N3CCN(C)CC3)CC2)ccc1Nc1ncc(Cl)c(Nc2ccccc2S(=O)(=O)C(C)C)n1 [NVP-TAE684] (first compound 0.1 µM, partner dose 0.4 µM), the cell count in assay [1] was determined as 71.7%; in assay [2], 64.5%; in assay [3], 63.5%; in assay [4], 42.3%.
For `CN(C)S(=O)(=O)c1ccc2c(c1)/C(=C/c1cc3c([nH]1)CCCC3)C(=O)N2` + CCN(CC)CCCCNc1ncc2cc(-c3cc(OC)cc(OC)c3)c(NC(=O)NC(C)(C)C)nc2n1 [PD173074] (first compound 2 µM, partner dose 0.5 µM) the same measures were 70.1%, 86%, 84% and 69.2%.
For `CO[C@@H]1[C@H](N(C)C(=O)c2ccccc2)C[C@H]2O[C@]1(C)n1c3ccccc3c3c4c(c5c6ccccc6n2c5c31)C(=O)NC4` [Midostaurin] + O=C1NC(=O)/C(=C/c2ccc(-c3ccc(F)cc3O)o2)S1 [AS252424] (first compound 0.4 µM, partner dose 5 µM) the same measures were 91.9%, 74.4%, 55.3% and 90%.
For `C=CCn1c(=O)c2cnc(Nc3ccc(N4CCN(C)CC4)cc3)nc2n1-c1cccc(C(C)(C)O)n1` + c1cc(-c2cnn3cc(-c4ccc(OCCN5CCCCC5)cc4)cnc23)ccn1 [Dorsomorphin] (first compound 0.1 µM, partner dose 2 µM) the same measures were 41.4%, 50.2%, 61.8% and 53.7%.
As to `NC(=O)Nc1cc(-c2cccc(F)c2)sc1C(=O)N[C@H]1CCCNC1` + CCCCCCCCCCCC1=C(O)C(=O)C=C(O)C1=O [Embelin] (first compound 0.1 µM, partner dose 6 µM), the cell count in assay [1] came to 74.1%; in assay [2], 53.4%; in assay [3], 97.2%; in assay [4] it was 70.2%.
As for `CO[C@@H]1[C@H](N(C)C(=O)c2ccccc2)C[C@H]2O[C@]1(C)n1c3ccccc3c3c4c(c5c6ccccc6n2c5c31)C(=O)NC4` [Midostaurin] + COc1ccc(-c2ccc3c(N4CCOCC4)nc(N4C[C@@H](C)O[C@@H](C)C4)nc3n2)cc1CO [KU0063794] (first compound 0.4 µM, partner dose 0.1 µM), the cell count in assay [1] is 76.6%; in assay [2], 57.1%; in assay [3], 59.3%; in assay [4], 87.4%.
The matching figures for `CO[C@@H]1[C@H](N(C)C(=O)c2ccccc2)C[C@H]2O[C@]1(C)n1c3ccccc3c3c4c(c5c6ccccc6n2c5c31)C(=O)NC4` [Midostaurin] + Oc1cc(-c2nc(-c3ccccc3)[nH]c2-c2ccncc2)ccc1Cl [L779450] (first compound 0.4 µM, partner dose 1 µM): 60.2%, 63.2%, 55.3% and 71.9%.
Turning to `CO[C@@H]1[C@H](N(C)C(=O)c2ccccc2)C[C@H]2O[C@]1(C)n1c3ccccc3c3c4c(c5c6ccccc6n2c5c31)C(=O)NC4` [Midostaurin] + Cn1cc(/C=C2\C(=O)Nc3cccnc32)c2ccccc21 [GW441756] (first compound 0.4 µM, partner dose 2 µM), the cell count in assay [1] was 105%; in assay [2], 68.6%; in assay [3], 72.7%; in assay [4], 88.9%.
The matching figures for `NC(=O)Nc1cc(-c2cccc(F)c2)sc1C(=O)N[C@H]1CCCNC1` + COc1ccc(-c2ccc3c(N4CCOCC4)nc(N4C[C@@H](C)O[C@@H](C)C4)nc3n2)cc1CO [KU0063794] (first compound 0.1 µM, partner dose 0.1 µM): 91.1%, 64.8%, 77% and 53.4%.
For the compound `CN(C)S(=O)(=O)c1ccc2c(c1)/C(=C/c1cc3c([nH]1)CCCC3)C(=O)N2` + COc1cc(N2CCC(N3CCN(C)CC3)CC2)ccc1Nc1ncc(Cl)c(Nc2ccccc2S(=O)(=O)C(C)C)n1 [NVP-TAE684] (first compound 2 µM, partner dose 0.4 µM), the cell count in assay [1] is 60.4%; in assay [2], 58.2%; in assay [3], 66.6%; in assay [4] it was 121%.
For `OCCn1cc(-c2cnc3nnn(Cc4ccc5ncccc5c4)c3n2)cn1` + CCCCCCCCCCCC1=C(O)C(=O)C=C(O)C1=O [Embelin] (first compound 5 µM, partner dose 6 µM) the same measures were 85.2%, 111%, 109% and 91.7%.
